Test results as given in PubChem BioAssay AID652104 (National Center for Advancing Translational Sciences (NCATS), 2013).
Among all 410,000 compounds or so, about 7,200 (1.8%) were called active. This list was built around the results that the source calls inconclusive (neither active nor inactive); the mix of calls is not that of the screen. The call rests on the fitted dose curve; in most records, active means well fitted activation curve with a large enough effect; inconclusive means small, poorly fitted or top-dose-only effect, or another doubt; inactive means no such curve, though single readings can be large or run the other way. Potencies of inconclusive entries are left out as doubtful fits.
Potency means the concentration at half of the fitted maximal effect; tags describe the fitted curve by direction and shape.

Test: qHTS of TDP-43 Inhibitors; further: nearly all actives have a fitted effect of over 50% in size; on growth rescue (activation): % of control where 0% means no effect
Conditions: TDP-43 expressing yeast growth rescue, BacTiter-Glo, 24 h; growth rescue (activation): at 46.1 µM (top of the series) unless noted
Summary of the method: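 In this qHTS, compounds that restore growth of yeast expressing TDP-43 appear as activators. Cells (OD600=0.02, galactose medium, raffinose-pregrown) are incubated with compound 24 hr at 30 deg C and growth is quantified by BacTiter-Glo.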
For `O=C1c2ccccc2C(=O)N1CCc1nc(-c2ccncc2)no1`, the Potency was inconclusive [activator, partial curve]. In the case of `COc1ccc(OC)c(NC(=O)c2cccc(NC(=O)c3ccco3)c2)c1`, the Potency is reported as inconclusive [activator, single point]. In the case of `Cc1n[nH]c(=S)n1/N=C/c1ccc(OCc2ccc(Cl)cc2)cc1`, the Potency is reported as inconclusive [activator, partial curve]. In the case of `Cc1ccc2c(c1)N(C(=O)CCC(=O)NC1CCCCCC1)CC(C)O2` (stereo not given), the “growth rescue (activation)” value is reported as inactive: 20.1%. For `O=C(CSCc1ccc(F)cc1)Nc1ccc(F)cc1`, the Potency was inconclusive [activator, single point]. In the case of `O=C1C(Cl)=C(NCc2cccnc2)C(=O)c2ccccc21`, the Potency is reported as inconclusive [activator, single point]. For `Cc1cc(-c2ccccc2)nc(N/N=C/c2ccc([N+](=O)[O-])cc2)n1`, the Potency was inconclusive [activator, full curve]. For `Cc1cccc(NC(=S)NCc2ccc(F)cc2)c1`, the Potency was inconclusive [activator, partial curve]. For `Cc1nn(-c2ccccc2)c2[nH]c(=O)cc(C(F)F)c12`, the Potency was inconclusive [activator, partial curve]. With `CCc1ccc(NC(=S)/N=C(\N)Nc2nc(C)c3cc(CC)ccc3n2)cc1` the Potency was inconclusive [activator, single point]. For `c1ccc(COC2COC3C(OCc4ccccc4)COC23)cc1` (stereo not given), the Potency was inconclusive [activator, single point]. For `c1ccc(OCCNc2ccn3nc(-c4ccccc4)cc3n2)cc1`, the “growth rescue (activation)” value was inactive: 27.3%. With `CCCc1cc(C(=O)NNC(=S)NCC2CCCO2)cs1` (stereo not given) the Potency was inconclusive [activator, full curve, poor fit]. For `Cc1ccc(NC(=O)c2cc(C)n(-c3ccccc3)c2C)cc1`, the Potency was active: 25.1 µM. For `O=C1c2ccccc2C(=O)C1c1ccccn1`, the Potency was inconclusive [activator, single point]. With `O=C(CSc1ccc(-c2ccco2)nn1)Nc1cccc(F)c1` the Potency was inconclusive [activator, partial curve]. For `CC(=O)c1cccc(NC(=O)N2CCCc3ccccc32)c1`, the Potency was inconclusive [activator, single point]. For `CC(=O)Nc1ccc(C2=NNC(=Nc3ccc(S(=O)(=O)N4CCOCC4)cc3)SC2)cc1`, the “growth rescue (activation)” value was inactive: -4.28%. In the case of `CCOc1ncccc1C(=O)Nc1ccc(F)c(F)c1`, the Potency is reported as inconclusive [activator, single point]. For `Cc1ccc(OCc2ccccc2Br)c([N+](=O)[O-])n1`, the Potency was active: 10 µM. With `CC(NC(=O)c1ccccc1)c1nc2ccccc2n1Cc1ccc(Cl)cc1` (stereo not given) the Potency was inconclusive [activator, partial curve]. With `O=C(NC(=S)Nc1cccc(C(F)(F)F)c1)c1ccc2nonc2c1` the Potency was active: 11.2 µM. With `CC(=O)N(c1ccc(N(C(C)=O)S(=O)(=O)c2ccccc2)cc1)S(=O)(=O)c1ccccc1` the “growth rescue (activation)” value was inactive: -27.5%. With `O=C(Nc1cccc(NC(=O)c2ccco2)c1)c1cnccn1` the Potency was active: 12.6 µM. For `CCc1sc(C(=O)Nc2ccc(F)cc2C)cc1C`, the Potency was inconclusive [activator, full curve, poor fit]. In the case of `CN(C(=O)COC(=O)c1ccccc1Nc1ccccc1)c1c(N)n(Cc2ccccc2)c(=O)[nH]c1=O`, the “growth rescue (activation)” value is reported as inactive: -21.6%. For `Cc1ccc(N2C(=O)C3C4C=CC(CNC(=S)Nc5cccc(Cl)c5)(O4)C3C2=O)cc1` (stereo not given), the Potency was inconclusive [activator, single point]. In the case of `COc1ccc(C(=O)NCc2nnnn2-c2ccc(C)c(C)c2)cc1`, the Potency is reported as inconclusive [activator, single point]. In the case of `Clc1cccc(C2CCN(Cc3nc(COc4ccccc4)no3)C2)c1` (stereo not given), the Potency is reported as inconclusive [activator, partial curve]. For `CC(=O)C1=C(C)NC(=O)CC1c1ccccc1Cl` (stereo not given), the “growth rescue (activation)” value was inactive: 0%. With `COc1ccc(CNC(=O)COc2ccccc2C(=O)c2cnn(-c3ccccc3)c2)cc1OC` the Potency was inconclusive [activator, partial curve]. For `COc1ccc(OC)c(-c2nc(C(=O)NCC3CCCO3)cc3c2[nH]c2ccccc23)c1` (stereo not given), the Potency was inconclusive [activator, full curve]. For `Oc1ccc2ccccc2c1CNc1ccc(Br)cn1`, the Potency was active: 20 µM. For `Cc1cc(C(=O)CSc2nncs2)c(C)n1-c1ccc2c(c1)OCO2`, the Potency was inconclusive [activator, single point]. For `O=C1N(c2ccccc2C(F)(F)F)OC1(Cc1ccccc1)c1ccccc1` (stereo not given), the Potency was inconclusive [activator, single point]. For `CCOC(=O)c1ccc(NC(=O)CN2C(=O)c3cccnc3Oc3ccc(Cl)cc32)cc1`, the Potency was inconclusive [activator, partial curve]. With `OC(Cn1ccnc1)c1ccc(Cl)cc1Cl` (stereo not given) the “growth rescue (activation)” value was inactive: 2.61%. For `COc1ccc(C(C[N+](=O)[O-])n2nc(C)cc2C)cc1` (stereo not given), the growth rescue (activation) was inconclusive: -87.9% [activator]. With `COc1cc(C=O)ccc1OCC(=O)Nc1cccc(S(=O)(=O)N(C)c2ccccc2)c1` the Potency was inconclusive [activator, full curve, poor fit]. For `COc1cccc(=O)c2c(C)n(-c3cc(C)cc(C)c3)c(C)c12`, the Potency was inconclusive [activator, single point]. In the case of `COc1cccc(C2=CC(=O)C[C@H](c3ccc4c(c3)OCO4)C2)c1OC`, the Potency is reported as active: 12.6 µM. In the case of `O=C1NC(c2ccccc2)Oc2ccccc21` (stereo not given), the Potency is reported as inconclusive [activator, single point]. For `O=C(CSc1ncnc2sc3c(c12)CCC3)NCC1CCCO1` (stereo not given), the Potency was inconclusive [activator, single point]. With `CSc1ccc(S(=O)(=O)NC2CCCCCC2)cc1` the Potency was inconclusive [activator, single point]. In the case of `NCCCCCC(=O)N/N=C/c1coc2ccccc2c1=O`, the Potency is reported as inconclusive [activator, single point].
